Results reported in ChEMBL document CHEMBL4888484, “Replenishing the malaria drug discovery pipeline: Screening and hit evaluation of the MMV Hit Generation Library 1 (HGL1) against asexual blood stage Plasmodium falciparum ,using a nano luciferase reporter read-out” (2022).
The whole screen tested about 150,000 compounds, of which about 540 (0.36%) showed an effect of 50% or more. This is one part of the list.

Each compound was assayed on Plasmodium falciparum (assay: Primary screen in NF54 nanoGlo assay, in single point, at 2uM, 72h; a lower Z score goes with more inhibition). Settings: timepoint 72 hour.
Type: functional, Erythrocyte

| Compound | % Inhibition | Z score |
| --- | --- | --- |
| C[C@H](Oc1ccccc1)C(=O)NCc1ccc2c(c1)CCN2C(=O)c1ccccc1 | -8% | 1.48 |
| Cc1cc(C2CCC2)nc(-c2cccc(O)c2)n1 | 11% | -1.45 |
| Cc1ccc(CN(C)C(=O)[C@@H](NS(=O)(=O)c2ccc3ccccc3c2)C(C)C)o1 | 2% | -0.4 |
| COc1cncc(C(NC(=O)c2n[nH]c3c2CCC3)[C@H]2C[C@@H](O)C2)c1 (some centres not stated) | -6% | 0.98 |
| CC1CN(CC2CCCCCC2)CC(C)O1 (configuration not stated) | -1% | 0.13 |
| Cn1nc(C(=O)N2CCCCCC2)c(=O)c2ccccc21 | -8% | 0.96 |
| O=C(Cn1cccc1-c1nc(-c2ccc(F)cc2)no1)N1CCCCC1 | -5% | 0.66 |
| COc1cc(N[C@@H](C)c2nc(CC(C)C)no2)ncn1 | -11% | 2.06 |
| O=C(CCOC1CCOCC1)N1CCC[C@H]1c1ccn[nH]1 | -11% | 2.11 |
| CC(C)c1ncsc1C(=O)N1CCC2(CC1)COC(=O)N2 | -8% | 0.81 |
| CCOc1ccc(CN[C@@H](CC)CO)cc1Cl | -4% | 0.58 |
| COc1cc(=O)[nH]cc1C(=O)N1CC[C@@](F)(c2ccccc2F)C1 | -8% | 1.53 |
| CN(C)[C@H]1CN(Cc2ccc3ccn(Cc4ccccc4)c3c2)C[C@@H]1O | 2% | -0.29 |
| CCc1nnnn1Cc1nc(C)cs1 | -8% | 0.85 |
| C[C@@H](Cn1cccn1)C(=O)N(Cc1ccc2c(c1)OCO2)C1CC1 | -1% | 0.2 |
| COc1cccc(-c2nc(S(=O)(=O)c3ccc4c(c3)OCCO4)c(NC3CC3)o2)c1 | -19% | 2.46 |
| COc1ccc(Br)cc1CNC(C)C | -7% | 1.04 |
| Cc1ccn([C@@H](C)CC(=O)NCc2ccc(C)o2)n1 | 2% | -0.4 |
| O=S(=O)(Nc1cccc2c1CCCC2)c1ccc2c(c1)OCCO2 | 11% | -1.57 |
| O=C(NCC1CCCCCCC1)N1CCC(C(F)(F)F)(C(F)(F)F)C1 | -5% | 0.76 |
| Cc1nccn1-c1c(Cl)cccc1NS(=O)(=O)c1cnc(-c2ccccc2)nc1 | -6% | 0.71 |
| CCn1ncc(CN2CC(Cc3nc(-c4cccnc4)no3)C2)c1C | -14% | 1.94 |

| Compound | % Inhibition | Z score |
| --- | --- | --- |
| Nc1nc(N2CCC(Cc3ccccc3)CC2)n[nH]1 | 3% | -0.34 |
| COc1cccc(CNC(=O)C[C@H]2C(=O)NCCN2C/C=C/c2ccccc2)c1OC | -1% | 0.19 |
| O=C(Cn1cnc2cc3c(cc21)OCCO3)NCCc1ccc(F)cc1 | -4% | 0.5 |
| CC(=O)N1C[C@H]2CN(C(=O)Cc3cccc(Cl)c3)CC[C@@]2(c2nc(C)n[nH]2)C1 | 38% | -4.26 |
| C[C@H]1CCN1CC(=O)NCc1cccs1 | 5% | -0.96 |
| C[C@@](CO)(NC(=O)NC1CCCCC1)C1CC1 | -2% | 0.27 |
| C[C@H]1CCS(=O)(=O)CCN1C(=O)c1cccc2cnccc12 | 2% | -0.2 |
| C[C@@H](NCc1ccccn1)c1cccc(Cl)c1 | -15% | 1.89 |
| CCc1nc(C)cc(N2CCN(c3nccs3)CC2)n1 | -11% | 0.94 |
| CCOc1ccccc1-c1cc(NC(=O)Cc2noc3ccccc23)on1 | 1% | -0.26 |
| CN1CCN(c2ccc(N3CCN(C(=O)c4ccco4)CC3)nn2)CC1 | -20% | 3.13 |
| Cc1cc(Cl)c2ncc(C#N)c(NCCOCCO)c2c1 | -9% | 0.78 |
| OC[C@H]1CN(c2cc(C(F)(F)F)ccn2)C[C@H]1CN1CCCCC1 | 5% | -1.01 |
| O=C(c1ccncc1)N(Cc1cc2ccccc2nc1O)C1CCCCC1 | -14% | 1.49 |
| Cc1cc(C2CCC2)nc(NCCn2cccn2)n1 | 3% | -0.37 |
| CN(CC[C@H]1CN(C(=O)Cc2cccs2)CC[C@H]1CC(=O)O)c1ccccc1 | -7% | 1.17 |
| COCC(=O)N[C@H]1[C@H](c2ccccc2)N(C(=O)C2CCC2)CC[C@@]1(C)O | -10% | 2.01 |
| Cc1ccccc1N(C(=O)c1ccco1)c1nc2ccccc2s1 | 9% | -1.15 |
| Cc1nocc1S(=O)(=O)N1CCC[C@H]1c1ccnn1C | -11% | 2 |
| N#Cc1ccc(-n2nc([C@H]3CCOC3)nc2-c2ccoc2)cc1 | -9% | 1.1 |
| CC(=O)N1CCN(C(=O)C[C@H]2COCCN2C/C=C/c2ccccc2)CC1 | -13% | 1.74 |
| Cc1noc(C)c1C(=O)N[C@H]1CCc2n[nH]c(=O)n2CC1 | -10% | 1.51 |

| Compound | % Inhibition | Z score |
| --- | --- | --- |
| O=C(c1cc(Br)c2c(c1)OCCO2)N1CC(=O)N(C2CC2)C1 | -13% | 2.64 |
| c1nc(N2CCC(n3cc(CC4CCCCC4)nn3)CC2)c2nc[nH]c2n1 | 1% | -0.13 |
| Cc1cnc(C(=O)Nc2cnns2)cn1 | -11% | 1.66 |
| CCN(C(=O)c1cn(C(C)(C)C)nn1)c1cccnc1C | 4% | -0.65 |
| CC=C(C)C(=O)NC1CCCC(NC(=O)OC(C)(C)C)C1 (configuration not stated) | -5% | 0.6 |
| Cc1ccc(C(=O)NC2CCC(CC3CCC(NC(=O)c4ccc(C)o4)CC3)CC2)o1 (configuration not stated) | -13% | 1.64 |
| C[C@]1(c2ccccc2)CCC(=O)N(CCC2(O)CCCC2)C1 | -9% | 1.56 |
| CN1CCCC[C@H](N(C)Cc2noc3c2COCC3)C1=O | -11% | 1.33 |
| Cc1ccc(N2C(=O)C(=O)N(Cc3cc(C)no3)C2=O)c(C)c1 | -2% | 0.36 |
| COc1ccc(CNC(=O)Cc2nnc(-c3cccc(Br)c3)o2)c(OC)c1 | -8% | 0.88 |
| Cn1ccc(C2CCN(CC(=O)NC(C)(C)C)CC2)n1 | -8% | 1.01 |
| O=C(c1ccoc1)N1CC[C@H](Oc2cccc(Cl)c2)C1 | -19% | 1.88 |
| C=CCN(CC=C)[C@H]1CCC(=O)N(CCOc2ccc(F)cc2)CC1 | 4% | -0.56 |
| CCO[C@@H](c1ccccc1)c1ccc2c(c1)CN(Cc1cccnc1)CCO2 | -8% | 1.03 |
| C[C@@H](Cn1cccn1)NC(=O)c1ccc2c(c1)OCO2 | 1% | -0.1 |
| CCOC(=O)NCCC(=O)N1CCC[C@H](C)C1 | 7% | -0.74 |
| Cc1ccc(S(=O)(=O)NC[C@H]2CCCO2)s1 | -17% | 1.87 |
| Cc1nn(C)c2nc(N[C@H]3CCCN(C(=O)c4cccs4)C3)sc12 | -3% | 0.69 |
| CC(=O)c1ccc(OC(C)C(=O)NC2CCCC(C)C2C)cc1F (configuration not stated) | -15% | 1.61 |
| O=C1C(N2C(=O)[C@@H]3CCCN3C2=O)CCN1C1CC1 (some centres not stated) | 2% | -0.33 |
| Cc1nc2n(n1)CC(NC1CCCC(C(F)(F)F)C1)CC2 (configuration not stated) | -16% | 3.03 |
| c1ccc(CCN2CCC[C@@]3(CCN(Cc4nc5ccccc5[nH]4)C3)C2)cc1 | 0% | -0.02 |

| Compound | % Inhibition | Z score |
| --- | --- | --- |
| CC1CCCC2(C1)NC(=O)N(Cc1nnc(C(C)C)s1)C2=O (configuration not stated) | 16% | -1.99 |
| Cn1c(=O)sc2cc(NC(=O)C(C)(C)C)ccc21 | -8% | 1.05 |
| CC1CCN(CC2CCCN(C(=O)NC(C)c3ccncc3)C2)CC1 (configuration not stated) | -3% | 0.46 |
| O=C1CCCC1C1CCCN1C(=O)c1cnc(-c2ccccc2)nc1 (configuration not stated) | -21% | 4.05 |
| O=C([C@H]1CC12CCN(Cc1ccc(N3CCCC3)cc1)CC2)N1CCN(Cc2ccccc2)CC1 | -7% | 1.01 |
| CC(=O)c1c(C)nn(CCC(=O)N2C[C@@H]3NC(=O)CN(C)C(=O)c4ccc(C)c(c4)Oc4cccc(c4)CO[C@H]3C2)c1C | -2% | 0.34 |
| Cn1cc(S(=O)(=O)NC[C@H](OCCO)c2ccsc2)cn1 | -18% | 2.07 |
| Cc1nocc1C(=O)N[C@@](C)(CO)c1cccc(Br)c1 | -14% | 1.62 |
| Fc1ccc(Oc2nc3ccccc3nc2Oc2ccc(F)cc2F)c(F)c1 | -2% | 0.23 |
| CCOCCC(=O)Nc1nnc(C(CC)CC)s1 | -8% | 1.22 |
| CC(C)c1ccc(CCCNc2cncc(C(=O)N(C)C)n2)cc1 | -10% | 2.03 |
| O=C(O)C[C@H](NC(=O)C1CCCCCC1)C1CC1 | -10% | 1.63 |
| CO[C@H]1COC[C@H]1NC(=O)NCc1nc(C(C)(C)C)co1 | -3% | 0.6 |
| Cc1ccc(N2CCCN(Cc3ccc(C(F)(F)F)cc3)C2=O)c(NC(=O)C2CCC2)c1 | -1% | 0.17 |
| Cc1ccnc(NS(=O)(=O)N2CCCCC2)c1 | -43% | 5.04 |
| Cc1noc(C)c1CC(=O)N(c1ccccc1)[C@H]1CCOC1 | -2% | 0.27 |
| COc1ccc(Cl)cc1C(=O)NC1CC2C(=O)Nc3ccccc3N2C1 (configuration not stated) | -13% | 2.45 |
| Cc1ccc(CCC(=O)N2CC[C@H]3[C@H](CCC(=O)N3Cc3cccc(F)c3)C2)cc1 | 14% | -1.91 |
| CCC(c1ccncc1)N(CC)C(=O)C1CCN(C)C(=O)C1 (configuration not stated) | -6% | 0.55 |
| CCC1CN(C(=O)Nc2ccn(C)n2)C(CC)CN1CC(C)(C)O (configuration not stated) | 3% | -0.43 |
